Experimental data published in the RNAGym collection of RNA variant scans (doi:10.7554/elife.90254).
Read counts are not given, so values of variants with three or more changes are uncertain.

B1: LINE1-mini (parent)
chain: GGCAGAGCUCAACACAGCGUGGCAAAGUGGCUGUGGCUAGACUGCC

Variants of: B1
Assay: self-cleavage, relative activity (ratio to wild type); higher = more cleavage; in vitro, sequencing; the parent is a self-cleaving ribozyme

| Variant | self-cleavage |
| --- | --- |
| AGCACAGAUCAACACAGAGUGGCAAAGUGGCAGUGGCGAGACUGCC | 0.24 |
| GGCGGGGCUCAACACAGCGUGGCAAAGUGCCUGUGGCUAGACUGCC | 0.04 |
| GGCAAAGCUCAACACAGCGUGGCAAAGUGGCGGUGGCUAGACUGCG | 0.01 |
| GGCAGAGCCCCACACAGCGUGGCAAAGUGGUUGUGGCUAGACUGCC | 0.05 |
| GACAGAGCUCAGCACAGCGUGGCAAAGUGGCUGUGGCAAGACUGCC | 0 |
| GGCAGAGCUUCACACAGCGUAGCAAAGUGGCUGUGGCUAGGAUGCC | 0.02 |
| GGCAGAGCCCAACACAGCGUGGCAAAUUGGCUGUGGCUAGAAUGCC | 0.06 |
| GGCAUAGCUCAACACAGCGUGGCAAAGUAUCUGCGGUUAGACUGCC | 0.04 |
| AGCAGAGCGCAACACGGCGUAGCAAAGUGGCUGUGGCUAGACUGCC | 0.16 |
| GGCAGAGCUCAGCAGAGCAUGCCAAAGUGGCUGUGGCUAGACUGCC | 0.02 |
| GGCAGAGCCCAACACAGCGAGGCAAAGAGGCUGUGGCUAGACUGCC | 0.02 |
| GGCAGAGCUCAAGUCAGCGUGGCAAAGUGGCUGUGGCUAGAUUGCC | 0.05 |
| GGCAGAGCUCAACAGGUCGUGGCAAAGAGGCUGUAGCUAGACUGCC | 0.02 |
| GGUAGAGCUCAACACAGGGUGGCAAAGUGGUUGACGCUAGACUCCC | 0.02 |
| GGCAGAUCUCAACACAGCGUAGCUAAGUGGCUGUGCCUAGACUGCC | 0.12 |
| GCCAGAGCUCAACACAGCGUGGCAAAGUGGCUGUGGCAAGAUUGCC | 0.09 |
| GGCAGACCUCAACACUGCGUGGCAAAGUUGCUGUGGCACGCCUGCC | 0 |
| GGCCGAGCACAACACUGCGUGGCAAAGUGGCUGUGGCUAGACUGCC | 0.06 |
| GGCGGAGCUCAACACAGCGUGGCAAAGUUGCCGUGGCUAGACUGCC | 0.13 |

| Variant | self-cleavage |
| --- | --- |
| GGCCGAGCUCAACACAGCUUGGCACAGUAGCUGUGGAUAGACUCCC | 0.05 |
| GGCAGAGCUCAACACAGCGUGUUAAAGUGGCAGUGGCUCGACUGCC | 0.59 |
| GGCAGAGCUUAACGCAGCGUGGCAAAGUGACUGUGGCUAGACUGCU | 0.11 |
| GGAAGAGCUCAACACUGCGUGACAAAGCGGCUGUGGCUAGACUGCC | 0.06 |
| GGCAGAGCUAAUCACAGCGUGGCAAAGUGGCUGUGGGUAGACUGCC | 0.01 |
| UGCAGAGCUCAACACAGCGUGGCAAAGUUGCCGUGGCUAGACUGCC | 0.07 |
| GGCAGAGCUCAACCCAGCGUGGCUAAGUGGCUGUAGCUAGACUGCC | 0.05 |
| GGCAGAGCUCAACACAGCGUGGAAAAGGGGCUAUGGCUAGACUAAC | 0.03 |
| GGCAGAGCUCAUCACAGCGUGUCAAUGUUGCUGUGGCUAGACCGCC | 0.13 |
| GGCAGAGCUUAACAUAGCGUGGCAAAGUCGCUGUGGCUAGACUGCC | 0.5 |
| GGCAGAGCUCAACACAGCGUGGCGAAGAGGCUGUGCCUAGACUGAC | 0.02 |
| GGCAGAGCUCUACACAGCGUGCCAAAGUGGCUGUGGCUAGGCUGCC | 0.02 |
| GGCAAAGCUCAACACAGCGUGGCAAAGUGGAUGUGGUUAGACUGCC | 0.1 |
| GGCAGAGCUCAACACAGCGUGGCAAGGGGGCUGUGGCAAGGCUACC | 0.03 |
| GGCAGAGCUCGACACAGAGUGCCAAAAUGGCUGUCGCUAGACUGCC | 0.64 |
| GGCAGACCUCUACAUAUCGUGGCAAAGGGGCUGUUGCUAGACUGCC | 0.01 |
| GGCAGAGCACAACACAGCGUGCCAAAGUGGCGGUGGCUAGACUGCC | 0.15 |
| GGCAGAGCUCAACACAGCGUGGCAAAGUGGCUGUGGCAAGACUCUA | 0.02 |
| GGCAGAGCUCAACAGAGCGUGUCUAAGUAGCUGUGGCUAGACCGCC | 0.02 |

| Variant | self-cleavage |
| --- | --- |
| GGCAGAGCUCAACACAUCAUGGCAAAGUGGCUGUGGCUAGCCUGCC | 0.02 |
| GGCAGAGCUCAACACAACGUGGUGAAGUUGCUGUGGCUAGACUGCC | 0.04 |
| GGCAGAGCUCAACACAUCGUCGGAAAGUAGCUGUGGCUAGACUGGC | 0.14 |
| GGCAGAGCUGAACACAUCGUGGCAAAGUGGCUGUGGCUAGAUUGCC | 0.04 |
| GGCAGAGGUCAACACACCGUGGCUAAGUGGCUUUGGCUAGACUGCC | 0.03 |
| GGCAGUGCUCCACACAGCGCGGCAAAGUCGCUGUGGCUAGACUGCC | 0.06 |
| GACAGUGAUCAGCACAGCGUGGCAAAGUGGCUGUAGCUAGACUGGC | 0.14 |
| GGCAGGGCUCAACACAGCGUGGAAAAGUGGCUGUGGCUAGACUGCU | 0.1 |
| GGCAGAGCUUAUCACAGCGUGGCAAAGUGGCGGUGUCUAGACUGCC | 0.01 |
| GGCACAGCUCAACACAGCGUGGCAAACUGGCUGAGGCUAGACUGCC | 0.04 |
| GGCAGAGCCCAACACAGCGUGGCAAAGUGGCUGUACCUAGGAUGCC | 0.02 |
| GUCAGAGCUCAUCACGGCGUGGCAAAGUGCCUGUGGGUACACUGCA | 0.01 |
| GGAAGAGCUCAACACAGCGUGGCAAAGUGGCAGUCGCUAGCCUGCC | 0.12 |
| GGCAGAGCUAAAAACAGCGUGGCAAAGUGGCUGUGACUAGACUGCC | 0.05 |
| GGCAGAGCUCAACACAGCGUGGCAAAGCGGAUGAGGCUAGACUGCC | 0.01 |
| GGCAGAGCUCAGCACAGCGGGGCAAAGUGGCUGUCUCGCGACUGCC | 0 |
| GGCAGAGCGCAACACAGCGUGGCCAAGUGGCUGUGGCGAGACUGCC | 0.03 |
| GGCAGAGCUGAACACAGCGUGGUAAAGUGGCUGUGGCUAGUCUGCC | 0.07 |
